Assay results reported in PubChem BioAssay AID504333 (National Center for Advancing Translational Sciences (NCATS), 2011).
About 16,000 (4.4%) of roughly 360,000 compounds were called active. Inconclusive results, whose numbers are uncertain, are shown with a selection of clear calls. The call rests on the fitted dose curve; in most records, active means well fitted inhibition curve with a large enough effect; inconclusive means small, poorly fitted or top-dose-only effect; inactive means no such curve, though single readings can be large or run the other way. Where the call is inconclusive, the potency comes from a doubtful curve fit.
Further: nearly all actives have a fitted effect of over 60% in size.
Potency means the concentration at half of the fitted maximal effect; tags describe the fitted curve by direction and shape.

What follows are compounds tested against Bromodomain adjacent to zinc finger domain protein 2B (Homo sapiens) (UniProt Q9UIF8) (assay: qHTS Assay for Inhibitors of BAZ2B). Settings: AlphaScreen BAZ2B-H3K14Ac peptide displacement; series mostly up to 114 µM.
Chain of UniProt Q9UIF8 (Q9UIF8 whole entry, looked up, the tested form may be a part): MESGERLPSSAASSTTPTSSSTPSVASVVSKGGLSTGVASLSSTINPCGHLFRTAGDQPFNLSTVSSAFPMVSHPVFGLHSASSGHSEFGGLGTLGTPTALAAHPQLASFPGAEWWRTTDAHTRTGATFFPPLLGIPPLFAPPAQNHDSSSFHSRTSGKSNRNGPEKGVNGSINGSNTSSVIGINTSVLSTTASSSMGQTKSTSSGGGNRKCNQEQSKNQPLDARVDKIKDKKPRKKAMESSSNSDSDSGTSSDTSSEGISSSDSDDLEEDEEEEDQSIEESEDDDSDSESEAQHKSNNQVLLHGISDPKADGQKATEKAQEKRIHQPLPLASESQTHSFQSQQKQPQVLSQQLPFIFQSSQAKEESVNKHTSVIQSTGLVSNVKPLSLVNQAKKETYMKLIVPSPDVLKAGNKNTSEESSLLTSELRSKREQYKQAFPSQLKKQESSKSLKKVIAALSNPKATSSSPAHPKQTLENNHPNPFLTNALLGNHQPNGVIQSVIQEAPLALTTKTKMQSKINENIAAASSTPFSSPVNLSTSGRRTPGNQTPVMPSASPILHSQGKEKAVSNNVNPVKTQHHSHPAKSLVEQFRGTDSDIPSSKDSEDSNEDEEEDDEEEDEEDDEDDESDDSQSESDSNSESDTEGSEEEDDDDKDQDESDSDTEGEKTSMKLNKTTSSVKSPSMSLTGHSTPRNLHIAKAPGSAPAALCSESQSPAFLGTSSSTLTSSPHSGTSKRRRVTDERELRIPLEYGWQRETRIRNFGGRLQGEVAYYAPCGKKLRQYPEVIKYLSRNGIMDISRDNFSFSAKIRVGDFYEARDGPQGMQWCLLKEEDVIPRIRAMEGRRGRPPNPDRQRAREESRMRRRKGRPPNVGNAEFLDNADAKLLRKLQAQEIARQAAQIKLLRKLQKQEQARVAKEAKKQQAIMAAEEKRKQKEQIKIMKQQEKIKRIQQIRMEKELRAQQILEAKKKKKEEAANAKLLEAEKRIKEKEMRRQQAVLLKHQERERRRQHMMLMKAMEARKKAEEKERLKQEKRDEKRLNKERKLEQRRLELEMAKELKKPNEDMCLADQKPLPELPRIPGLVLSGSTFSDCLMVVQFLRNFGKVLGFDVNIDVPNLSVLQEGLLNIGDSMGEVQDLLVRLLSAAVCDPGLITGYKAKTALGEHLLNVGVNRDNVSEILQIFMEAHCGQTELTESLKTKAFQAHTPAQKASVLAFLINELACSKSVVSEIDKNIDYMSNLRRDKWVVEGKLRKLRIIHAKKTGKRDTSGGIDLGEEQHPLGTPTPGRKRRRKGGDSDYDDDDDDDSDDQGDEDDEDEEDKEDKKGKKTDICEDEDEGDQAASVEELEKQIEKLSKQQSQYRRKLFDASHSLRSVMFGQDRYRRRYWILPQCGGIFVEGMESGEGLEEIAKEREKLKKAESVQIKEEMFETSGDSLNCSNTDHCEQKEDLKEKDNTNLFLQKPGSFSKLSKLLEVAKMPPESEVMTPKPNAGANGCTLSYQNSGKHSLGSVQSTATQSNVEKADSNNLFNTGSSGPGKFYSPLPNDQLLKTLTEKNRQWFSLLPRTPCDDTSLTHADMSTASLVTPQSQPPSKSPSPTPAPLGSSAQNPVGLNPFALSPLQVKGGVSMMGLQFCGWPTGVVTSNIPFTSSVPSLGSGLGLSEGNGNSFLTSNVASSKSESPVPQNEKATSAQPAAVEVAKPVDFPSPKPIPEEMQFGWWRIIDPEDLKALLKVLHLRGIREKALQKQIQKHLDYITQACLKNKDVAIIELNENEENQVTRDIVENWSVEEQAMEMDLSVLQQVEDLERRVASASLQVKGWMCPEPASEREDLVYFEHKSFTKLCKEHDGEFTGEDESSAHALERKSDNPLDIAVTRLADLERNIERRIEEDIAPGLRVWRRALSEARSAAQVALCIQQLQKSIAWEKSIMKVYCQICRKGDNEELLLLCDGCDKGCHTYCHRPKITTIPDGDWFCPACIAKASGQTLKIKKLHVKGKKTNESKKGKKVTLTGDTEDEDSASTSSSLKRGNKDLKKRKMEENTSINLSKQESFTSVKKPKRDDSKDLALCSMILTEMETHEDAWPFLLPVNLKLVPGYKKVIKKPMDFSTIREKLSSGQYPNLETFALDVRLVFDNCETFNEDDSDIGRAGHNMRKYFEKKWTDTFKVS
Summary of the method: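 In this displacement format the biotinylated H3(5-23) peptide acetylated at Lys14 serves as ligand at 50 nM, with BAZ2B at 50 nM in PBS pH 7.4 containing 0.01% Tween-20. Donor and acceptor beads are 10 ug/mL final.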
`COc1ccc(N2CCN(C(=O)CN(c3ccc(Br)cc3)S(C)(=O)=O)CC2)cc1` was tested, and the Potency was inconclusive: 70.8 µM [inhibitor, single point].
For `Cc1ccc(N(C)S(=O)(=O)c2c(C)[nH]c(C)c2C(=O)N2CCCC2)cc1`, the Potency was “inactive”.
In the case of `O=C(CN1CCCCCC1)NCCc1ccc(F)cc1`, the Potency is reported as active: 50.1 µM.
`O=C1Nc2ccc([N+](=O)[O-])cc2OC1CCN1CCN(c2ccccc2)CC1` (configuration not stated) was tested, and the Potency was inconclusive: 39.8 µM [inhibitor, full curve, poor fit].
With `Cc1ccc(C)c(S(=O)(=O)Nc2ccc(O)c3ccccc23)c1` the Potency was active: 50.1 µM.
For `COc1ccccc1CCNC(=O)c1cccn1-c1nnc(N2CCCC2)s1`, the Potency was “inactive”.
With `Cc1cc(C(=O)COC(=O)C2=NNC(=O)CC2)c(C)n1CCc1ccccc1` the Potency was inconclusive: 0.708 µM [inhibitor, full curve, poor fit].
In the case of `Cn1ccsc1=NC(=O)c1ccc([N+](=O)[O-])o1`, the Potency is reported as “inactive”.
In the case of `Oc1cccnc1SCc1ccccc1`, the Potency is reported as inconclusive: 89.1 µM [inhibitor, single point].
`CC(C)Oc1ccc(CNCC2(O)CCOC(C)(C)C2)cc1` (configuration not stated) was tested, and the Potency was inconclusive: 89.1 µM [inhibitor, single point].
With `O=C(COc1ccc(S(=O)(=O)N2CCc3ccccc32)cc1Cl)NCc1ccccn1` the Potency was active: 79.4 µM.
In the case of `O=C(O)c1cccc(NC(=O)c2cn(-c3ccccc3)nc2-c2ccc([N+](=O)[O-])cc2)c1`, the Potency is reported as inconclusive: 89.1 µM [inhibitor, single point].
In the case of `COc1ccc(CCNC(=O)CCc2cn(Cc3ccccc3Cl)c3ccccc23)c(OC)c1`, the Potency is reported as inconclusive: 35.5 µM [inhibitor, full curve].
In the case of `O=C(O)c1cnn2c1C(=O)N(Cc1cccs1)CC2`, the Potency is reported as active: 22.4 µM.
With `COc1ccc(OC)c(S(=O)(=O)N2CCN3CCCC3C2)c1` (configuration not stated) the Potency was “inactive”.
In the case of `Cc1cc(C)c(COc2ccc(/C=N/n3c(C)n[nH]c3=S)cc2)c(C)c1`, the Potency is reported as inconclusive: 89.1 µM [inhibitor, single point].
`O=C(NN1C(=O)/C(=C/c2cc([N+](=O)[O-])ccc2O)SC1=S)c1ccccc1O` was tested, and the Potency was active: 5.62 µM.
For `Cc1cccc(NC(=O)CSc2nsc(SCC(=O)Nc3cccc(C)c3)c2C#N)c1`, the Potency was inconclusive: 31.6 µM [inhibitor, single point].
In the case of `Cc1cnc(C(=O)Nc2ccccc2F)cn1`, the Potency is reported as inconclusive: 79.4 µM [inhibitor, single point].
With `CCOC(=O)c1sc(=S)n(-c2ccccc2)c1SC` the Potency was “inactive”.
With `CCC(=O)N(C)/C=C1\Sc2ccccc2C1=O` the Potency was active: 56.2 µM.
In the case of `COc1ccc(S(=O)(=O)N2CCCOC2CNC(=O)C(=O)NCCCn2ccnc2)cc1OC` (configuration not stated), the Potency is reported as active: 70.8 µM.
For `O=c1cc(O)c2sc(Nc3ccc(Cl)c(F)c3)nc2[nH]1`, the Potency was inconclusive: 79.4 µM [inhibitor, single point].
In the case of `COc1ccc(NC(=O)CSc2nc3c(c(=O)n2-c2ccc(F)cc2)SCC3)cc1`, the Potency is reported as “inactive”.
`Cc1csc(/C(=N/OC(=O)c2ccco2)C(N)=O)n1` was tested, and the Potency was inconclusive: 89.1 µM [inhibitor, single point].
With `CCOC(=O)c1cc2occc2n1Cc1ccc(F)cc1` the Potency was inconclusive: 44.7 µM [inhibitor, partial curve].
With `O=C(COc1ccc(Cl)cc1)Nc1nnc(C2=COCCO2)o1` the Potency was active: 20 µM.
In the case of `COc1ccc(/C=N/NC(=O)c2nc(-c3ccccc3)cc(-c3ccccc3)n2)cc1O`, the Potency is reported as inconclusive: 44.7 µM [inhibitor, partial curve].
`COc1ccccc1N(CC(=O)NCc1ccco1)S(=O)(=O)c1ccc(C)cc1` was tested, and the Potency was active: 44.7 µM.
`C/C(=N\Nc1ccccc1[N+](=O)[O-])c1ccc(N2CCOCC2)cc1` was tested, and the Potency was active: 1 µM.
With `COc1ccccc1NC(=O)c1nc[nH]c1C(=O)Nc1ccccc1OC` the Potency was inconclusive: 100 µM [inhibitor, single point].
For `O=C(NCCc1ccccc1)C1CCC(CNS(=O)(=O)c2ccc(Cl)cc2)CC1` (configuration not stated), the Potency was “inactive”.
For `Brc1ccccc1OCCCN1CCCC1`, the Potency was inconclusive: 79.4 µM [inhibitor, single point].
`CC(=O)c1nc(N2C(=O)CC(Cc3ccc(C)cc3)C2=O)sc1C` (configuration not stated) was tested, and the Potency was inconclusive: 89.1 µM [inhibitor, single point].
In the case of `Cc1cc(NC(=O)c2noc3c2CCCC3)nn1Cc1ccc(Cl)cc1`, the Potency is reported as inconclusive: 100 µM [inhibitor, single point].
For `COc1cccc(-c2nc(CS(=O)(=O)CC(=O)Nc3ccc(C(C)=O)cc3)c(C)o2)c1`, the Potency was inconclusive: 79.4 µM [inhibitor, single point].
For `Cc1ccnc2nc(C(=O)Nc3nccs3)nn12`, the Potency was inconclusive: 89.1 µM [inhibitor, single point].
In the case of `CCOc1ccc(C(=O)c2cc([N+](=O)[O-])ccc2Cl)cc1`, the Potency is reported as inconclusive: 28.2 µM [inhibitor, full curve].
In the case of `Cc1ccc(C)c(S(=O)(=O)NC2CCSC2=O)c1` (configuration not stated), the Potency is reported as “inactive”.
In the case of `Cc1nnc(N=c2ssnc2Cl)o1`, the Potency is reported as inconclusive: 89.1 µM [inhibitor, single point].
For `COCCNC(=O)c1cc2oc3ccccc3c2n1C`, the Potency was inconclusive: 89.1 µM [inhibitor, single point].
With `O=C(Cn1c(=O)n(-c2ccc(Cl)cc2)c(=O)c2sc3ccccc3c21)NC1CCCC1` the Potency was “inactive”.
`CCOc1cc(N2CCOCC2)c(OCC)cc1NC(=O)COC(=O)CCOc1ccc(C(C)(C)C)cc1` was tested, and the Potency was active: 35.5 µM.
`Cc1noc(C)c1CSCC(=O)Nc1ccc(S(C)(=O)=O)cc1` was tested, and the Potency was inconclusive: 89.1 µM [inhibitor, single point].
With `CCOc1ccc(-c2c(C)nn3c(C)c(C(=O)NCCc4ccc(Cl)cc4)cnc23)cc1OCC` the Potency was inconclusive: 89.1 µM [inhibitor, single point].
In the case of `COc1ccc2[nH]c3c(c2c1)CCN(C(=O)c1cccc(Cl)c1)C3c1ccc(F)cc1` (configuration not stated), the Potency is reported as inconclusive: 10 µM [inhibitor, full curve, poor fit].
With `CCSc1ccccc1C(=O)Nc1ccc(S(=O)(=O)NC(C)=O)cc1` the Potency was “inactive”.
